Here are results for 23 compounds from ChEMBL document CHEMBL5606460, “ASAP - DENV-2 NS2B-NS3 protease fluorescence single point” (2024).

This assay deals with Genome polyprotein (dengue virus type 2) (UniProt P29990).
The mark [1] stands for this setting: Thailand/16681/1984, Concentration 25.0 uM, Number of replicates 1.0.

Hit rate of the full screen: of about 2,000 compounds, about 110 (5.5%) showed an effect of 50% or more. This is one part of the list.

The term inhibition denotes the change of the read-out against control, counted positive when it falls. Take `O=C1[C@@H]2CCCN2[C@H](c2ccc([N+](=O)[O-])cc2)N1c1ccc([N+](=O)[O-])cc1`: the inhibition is, setting by setting: (Thailand/16681/1984, Concentration 49.5 uM, Number of replicates 2.0, Standard deviation 0.9169689211516303 %) 1.38%; (Thailand/16681/1984, Concentration 99.01 uM, Number of replicates 2.0, Standard deviation 0.1237768647067936 %) 5.28%; (Thailand/16681/1984, Concentration 198.0 uM, Number of replicates 2.0, Standard deviation 0.26470581088358064 %) 12.8%.
In the case of `O=C(c1csc([C@H]2CCCNC2)n1)N1CC[C@H](c2cccnc2)C1`, the inhibition (Thailand/16681/1984, Concentration 49.5 uM, Number of replicates 2.0, Standard deviation 1.7251582592894925 %) was -0.499%; the inhibition (Thailand/16681/1984, Concentration 99.01 uM, Number of replicates 2.0, Standard deviation 2.248532513594862 %) amounted to 1.01%; the inhibition (Thailand/16681/1984, Concentration 198.0 uM, Number of replicates 2.0, Standard deviation 1.6393165928155962 %) came to 2.41%.
With `CN1CCN(C2CCN(C(=O)C3CCN(c4ccc(C=O)cc4)CC3)CC2)CC1`, under setting [1], the inhibition was found to be 10.2%.
As for `O=Cc1ccc(N2CCC(C(=O)NCCn3ncc4ccccc4c3=O)CC2)cc1`, the inhibition under setting [1] was determined as 15.1%.
For `CN(C)S(=O)(=O)[C@H]1C[C@H](NC(=O)c2cccc3c2NC(=O)[C@]2(CCCN2)C3)C1`, the inhibition was -1.16% (Thailand/16681/1984, Concentration 49.5 uM, Number of replicates 2.0, Standard deviation 2.4228708872645983 %); -0.631% (Thailand/16681/1984, Concentration 99.01 uM, Number of replicates 2.0, Standard deviation 1.9959961416034686 %); -0.336% (Thailand/16681/1984, Concentration 198.0 uM, Number of replicates 2.0, Standard deviation 1.8190401536132663 %).
For `CC(C)(C)[C@@H](NC(=O)OCc1ccccc1)C(=O)Nc1cccc(CN)c1`, the inhibition is, setting by setting: (Thailand/16681/1984, Concentration 49.5 uM, Number of replicates 2.0, Standard deviation 1.83793572376561 %) -6.76%; (Thailand/16681/1984, Concentration 99.01 uM, Number of replicates 2.0, Standard deviation 1.8206757463634287 %) -7.66%; (Thailand/16681/1984, Concentration 198.0 uM, Number of replicates 2.0, Standard deviation 1.2664180516369132 %) -8.05%.
As to `COc1ccc(S(=O)(=O)N2CCC(C(=O)Nc3nccs3)CC2)cc1`, the inhibition reads like this: (Thailand/16681/1984, Concentration 49.5 uM, Number of replicates 2.0, Standard deviation 0.17896011278374374 %) -0.799%; (Thailand/16681/1984, Concentration 99.01 uM, Number of replicates 2.0, Standard deviation 0.11050992187938288 %) -0.402%; (Thailand/16681/1984, Concentration 198.0 uM, Number of replicates 2.0, Standard deviation 1.1191191361433108 %) -0.384%.
With `O=Cc1ccc(N2CCC(C(=O)NCc3ccc(-c4cccs4)cc3)CC2)cc1`, the inhibition under setting [1] was determined as 10.9%.
For `CNc1ccccc1C(=O)Nc1cccc2c(CO)cc(C)nc12`, the inhibition runs as follows: (Thailand/16681/1984, Concentration 49.95 uM, Number of replicates 2.0, Standard deviation 1.7606224720878931 %) -0.213%; (Thailand/16681/1984, Concentration 99.9 uM, Number of replicates 2.0, Standard deviation 1.1796035516056886 %) 2.15%.
As for `CNS(=O)(=O)c1ccc(Oc2ccccc2Cl)cc1`, the inhibition was -1.72% (Thailand/16681/1984, Concentration 49.5 uM, Number of replicates 2.0, Standard deviation 2.6119045762628477 %); -0.429% (Thailand/16681/1984, Concentration 99.01 uM, Number of replicates 2.0, Standard deviation 1.5233102161282106 %); 1.7% (Thailand/16681/1984, Concentration 198.0 uM, Number of replicates 2.0, Standard deviation 1.4243001461587221 %).
For `COc1cc(CCNC(=O)C2CCN(c3ccc(C=O)cc3)CC2)cc(OC)c1O`, the inhibition under setting [1] amounted to 15.1%.
`Cc1cc(CO)c2cccc(NC(=O)c3nc(C4CCNCC4)oc3C)c2n1`: the inhibition worked out at 67.7% (Thailand/16681/1984, Concentration 49.95 uM, Number of replicates 2.0, Standard deviation 36.17788639576005 %) and 98.7% (Thailand/16681/1984, Concentration 99.9 uM, Number of replicates 2.0, Standard deviation 0.36888000776056334 %).
For `O=Cc1ccc(N2CCC(C(=O)N3CCN(c4cnccn4)CC3)CC2)cc1`, the inhibition under setting [1] stood at 10.1%.
Regarding `O=S(=O)(c1ccc(Oc2ccccc2Cl)cc1)N1CCCCC1`, the inhibition (Thailand/16681/1984, Concentration 49.5 uM, Number of replicates 2.0, Standard deviation 1.7286106762384137 %) came to 3.23%; the inhibition (Thailand/16681/1984, Concentration 99.01 uM, Number of replicates 2.0, Standard deviation 0.7664143091245312 %) turned out to be 4.02%; the inhibition (Thailand/16681/1984, Concentration 198.0 uM, Number of replicates 2.0, Standard deviation 1.0381210487205594 %) was 7.6%.
In the case of `CN(CCCOc1ccc(Br)cc1)C(=O)C1CCN(c2ccc(C=O)cc2)CC1`, the inhibition under setting [1] is -1.56%.
Still for that read-out and setting: with `O=Cc1ccc(N2CCC(C(=O)Nc3c(F)c(F)cc(F)c3F)CC2)cc1` the figure was 13.9%.
Turning to `Cc1cc(CO)c2cccc(CC(=O)NCCc3ncc[nH]3)c2n1`, the inhibition runs as follows: (Thailand/16681/1984, Concentration 49.95 uM, Number of replicates 2.0, Standard deviation 0.7345959673097169 %) 39.1%; (Thailand/16681/1984, Concentration 99.9 uM, Number of replicates 2.0, Standard deviation 0.015925439590932376 %) 77.7%.
Consider `CN(CCC(c1ccccc1)c1ccccc1)C(=O)C1CCN(c2ccc(C=O)cc2)CC1`, for which the inhibition under setting [1] was found to be 4.26%.
For the compound `C[C@@H]1CCN(Cc2ccccc2)C[C@@H]1N(C)C(=O)C1CCN(c2ccc(C=O)cc2)CC1`, the inhibition under setting [1] was 16.5%.
Still for that read-out and setting: with `CCCCCN(CCCCC)C(=O)C1CCN(c2ccc(C=O)cc2)CC1` the figure was 14.5%.
With `c1ccc2[nH]c(CN3CC[C@H](c4c[nH]c5ccccc45)C3)cc2c1`, the inhibition was determined as 4.51% (Thailand/16681/1984, Concentration 49.5 uM, Number of replicates 2.0, Standard deviation 0.7608740215940771 %); 4.39% (Thailand/16681/1984, Concentration 99.01 uM, Number of replicates 2.0, Standard deviation 0.30587350380986955 %); 3.06% (Thailand/16681/1984, Concentration 198.0 uM, Number of replicates 2.0, Standard deviation 0.6449469231287406 %).
Turning to `CC(C)Cn1cccc(C(=O)N[C@H]2CCCN(C)C2)c1=O`, the inhibition was -2.84% (Thailand/16681/1984, Concentration 49.5 uM, Number of replicates 2.0, Standard deviation 0.6669640996160435 %); -2.69% (Thailand/16681/1984, Concentration 99.01 uM, Number of replicates 2.0, Standard deviation 0.010925306070993951 %); -0.838% (Thailand/16681/1984, Concentration 198.0 uM, Number of replicates 2.0, Standard deviation 0.5176514919942877 %).
With `CCn1ccnc(N[C@@H](Cc2c[nH]c3ccccc23)C(=O)O)c1=O`, the inhibition runs as follows: (Thailand/16681/1984, Concentration 49.5 uM, Number of replicates 2.0, Standard deviation 3.923841756395489 %) 0.008%; (Thailand/16681/1984, Concentration 99.01 uM, Number of replicates 2.0, Standard deviation 3.5390857683707204 %) 2.09%; (Thailand/16681/1984, Concentration 198.0 uM, Number of replicates 2.0, Standard deviation 3.6597093112390504 %) 7.72%.
